# Data from the supplement of paper PMC8728848.
# The other results are listed elsewhere or left out.
# B1: GSL-I-B4 (Griffonia simplicifolia) (protein)
# chain: NFWSDVEDSIIFQGDANTTAGTLQLCKTNQYGTPLQWSAGRALYSDPVQLWDNKTESVASFYTEFTFFLKITGNGPADGLAFFLAPPDSDVKDAGEYLGLFNKSTATQPSKNQVVAVEFDTWTNPNFPEPSYRHIGINVNSIVSVATKRWEDSDIFSGKIATARISYDGSAEILTVVLSYPDGSDYILSHSVDMRQNLPESVRVGISASTGNNQFLTVYILSWRFSSNLQSTSVKAAMEPEITRTVV
# Experiments:
# Experiment in all cases: glycan array binding signal (z-score within array); higher = stronger binding
# Settings in all cases: glycan notation: IUPAC condensed, linker removed
# GalNAc(b1-3)Gal = target: GalNAc(b1-3)Gal
# In short: (§1)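 Glycan array data were curated from 3228 arrays in the Consortium for Functional Glycomics database and kept only where the protein sequence was available. Glycan names were converted to IUPAC-condensed notation, and columns mapping to the same glycan were averaged. The binding signal is a within-array Z-score, averaged across arrays of the same protein sequence at different concentrations or buffers and across linkers. Negative Z-scores can be read as non-binding.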
# [1] = target: GalNAc(b1-3)Gal(a1-4)Gal(b1-4)GlcNAc
# In short: as §1
# [2] = target: GalNAc(b1-3)Gal(a1-4)Gal(b1-4)GlcNAc(b1-3)Gal(b1-4)Glc
# In short: as §1
# [3] = target: GalNAc(b1-3)Gal(a1-6)Gal(b1-4)Glc
# In short: as §1
# GalNAc(b1-3)GalNAc = target: GalNAc(b1-3)GalNAc
# In short: as §1
# GalNAc(b1-3)GlcNAc = target: GalNAc(b1-3)GlcNAc
# In short: as §1
# GalNAc(b1-4)Gal(b1-4)Glc = target: GalNAc(b1-4)Gal(b1-4)Glc
# In short: as §1
# GalNAc(b1-4)GlcNAc = target: GalNAc(b1-4)GlcNAc
# In short: as §1
# [4] = target: GalNAc(b1-4)GlcNAc(b1-2)Man
# In short: as §1
# [5] = target: GalNAc(b1-4)GlcNAc(b1-2)Man(a1-3)[GalNAc(b1-4)GlcNAc(b1-2)Man(a1-6)]Man(b1-4)GlcNAc(b1-4)GlcNAc
# In short: as §1
# [6] = target: GalNAc(b1-4)GlcNAc(b1-3)GalNAc(b1-4)GlcNAc
# In short: as §1
# GalNAc(b1-4)GlcNAc6S = target: GalNAc(b1-4)GlcNAc6S
# In short: as §1
# GalNAc(b1-6)GalNAc = target: GalNAc(b1-6)GalNAc
# In short: as §1
# GalNAc3S(b1-4)GlcNAc = target: GalNAc3S(b1-4)GlcNAc
# In short: as §1
# GalNAc3S(b1-4)GlcNAc3S = target: GalNAc3S(b1-4)GlcNAc3S
# In short: as §1
# [7] = target: GalNAc3S(b1-4)[Fuc(a1-3)]GlcNAc
# In short: as §1
# GalNAc4S6S(b1-4)GlcNAc = target: GalNAc4S6S(b1-4)GlcNAc
# In short: as §1
# GalNAc6S(b1-4)GlcNAc = target: GalNAc6S(b1-4)GlcNAc
# In short: as §1
# Glc(a1-4)Glc = target: Glc(a1-4)Glc
# In short: as §1
# [8] = target: Glc(a1-4)Glc(a1-4)Glc(a1-4)Glc
# In short: as §1
# Glc(a1-6)Glc(a1-6)Glc = target: Glc(a1-6)Glc(a1-6)Glc
# In short: as §1
# [9] = target: Glc(a1-6)Glc(a1-6)Glc(a1-6)Glc
# In short: as §1
# Glc(b1-4)Glc = target: Glc(b1-4)Glc
# In short: as §1
# Glc(b1-6)Glc = target: Glc(b1-6)Glc
# In short: as §1
# GlcA(b1-3)Gal = target: GlcA(b1-3)Gal
# In short: as §1
# GlcA(b1-3)GlcNAc = target: GlcA(b1-3)GlcNAc
# In short: as §1
# GlcA(b1-6)Gal = target: GlcA(b1-6)Gal
# In short: as §1
# [10] = target: GlcA3S(b1-3)Gal(b1-4)GlcNAc(b1-2)Man
# In short: as §1
# [11] = target: GlcA3S(b1-3)Gal(b1-4)GlcNAc(b1-3)Gal(b1-4)Glc
# In short: as §1
# [12] = target: GlcNAc(a1-3)Gal(b1-4)GlcNAc
# In short: as §1
# [13] = target: GlcNAc(a1-4)Gal(b1-3)GlcNAc
# In short: as §1
# [14] = target: GlcNAc(a1-4)Gal(b1-4)GalNAc
# In short: as §1
# [15] = target: GlcNAc(a1-4)Gal(b1-4)GlcNAc
# In short: as §1
# [16] = target: GlcNAc(a1-4)Gal(b1-4)GlcNAc(b1-3)Gal(b1-4)Glc
# In short: as §1
# [17] = target: GlcNAc(a1-4)Gal(b1-4)GlcNAc(b1-3)Gal(b1-4)GlcNAc
# In short: as §1
# [18] = target: GlcNAc(a1-4)Gal(b1-4)GlcNAc(b1-3)Gal(b1-4)GlcNAc(b1-3)Gal(b1-4)GlcNAc
# In short: as §1
# [19] = target: GlcNAc(a1-4)Gal(b1-4)GlcNAc(b1-3)Gal(b1-4)[Fuc(a1-3)]GlcNAc(b1-3)Gal(b1-4)[Fuc(a1-3)]GlcNAc
# In short: as §1
# [20] = target: GlcNAc(a1-6)Gal(b1-4)GlcNAc
# In short: as §1
binder,measurement,setting,value
B1,glycan array binding signal (z-score),GalNAc(b1-3)Gal,-0.112
same,glycan array binding signal (z-score),[1],-0.171
same,glycan array binding signal (z-score),[2],-0.162
same,glycan array binding signal (z-score),[3],-0.165
same,glycan array binding signal (z-score),GalNAc(b1-3)GalNAc,-0.167
same,glycan array binding signal (z-score),GalNAc(b1-3)GlcNAc,-0.205
same,glycan array binding signal (z-score),GalNAc(b1-4)Gal(b1-4)Glc,-0.154
same,glycan array binding signal (z-score),GalNAc(b1-4)GlcNAc,-0.152
same,glycan array binding signal (z-score),[4],-0.163
same,glycan array binding signal (z-score),[5],0.223
same,glycan array binding signal (z-score),[6],-0.193
same,glycan array binding signal (z-score),GalNAc(b1-4)GlcNAc6S,-0.146
same,glycan array binding signal (z-score),GalNAc(b1-6)GalNAc,-0.216
same,glycan array binding signal (z-score),GalNAc3S(b1-4)GlcNAc,-0.159
same,glycan array binding signal (z-score),GalNAc3S(b1-4)GlcNAc3S,-0.261
same,glycan array binding signal (z-score),[7],-0.182
same,glycan array binding signal (z-score),GalNAc4S6S(b1-4)GlcNAc,-0.233
same,glycan array binding signal (z-score),GalNAc6S(b1-4)GlcNAc,-0.245
same,glycan array binding signal (z-score),Glc(a1-4)Glc,-0.173
same,glycan array binding signal (z-score),[8],-0.156
same,glycan array binding signal (z-score),Glc(a1-6)Glc(a1-6)Glc,-0.122
same,glycan array binding signal (z-score),[9],-0.126
same,glycan array binding signal (z-score),Glc(b1-4)Glc,-0.097
same,glycan array binding signal (z-score),Glc(b1-6)Glc,-0.09
same,glycan array binding signal (z-score),GlcA(b1-3)Gal,-0.154
same,glycan array binding signal (z-score),GlcA(b1-3)GlcNAc,-0.167
same,glycan array binding signal (z-score),GlcA(b1-6)Gal,-0.127
same,glycan array binding signal (z-score),[10],-0.216
same,glycan array binding signal (z-score),[11],-0.14
same,glycan array binding signal (z-score),[12],-0.06
same,glycan array binding signal (z-score),[13],-0.171
same,glycan array binding signal (z-score),[14],-0.121
same,glycan array binding signal (z-score),[15],-0.12
same,glycan array binding signal (z-score),[16],-0.074
same,glycan array binding signal (z-score),[17],-0.024
same,glycan array binding signal (z-score),[18],0.024
same,glycan array binding signal (z-score),[19],-0.12
same,glycan array binding signal (z-score),[20],0.034
